Source: PMC5505701, “Somatostatin binds to the human amyloid β peptide and favors the formation of distinct oligomers” (eLife, 2017)

Test system: oligomeric Aβ1-42 (biotin-oAβ1-42 bait)
Details: for Experiment I B-oAβ1-42/B Ratio: enrichment relative to biotin-only saturated negative control matrix, human frontal lobe digitonin extract, TMT, three biological replicates, pH 8.0, 4°C overnight

oAβ1-42 binding observed (in words) (experiment not given)	Molecule	Experiment I B-oAβ1-42/B Ratio
	Cytosolic acyl CoA thioester hydrolase: human brain protein (protein, UniProt O00154 1-380, looked up) Cytosolic acyl coenzyme A …: MKLLARALRLCEFGRQASSRRLVAGQGCVGPRRGCCAPVQVVGPRADLPPCGACITGRIMRPDDANVAGNVHGGTILKMIEEAGAIISTRHCNSQNGERCVAALARVERTDFLSPMCIGEVAHVSAEITYTSKHSVEVQVNVMSENILTGAKKLTNKATLWYVPLSLKNVDKVLEVPPVVYSRQEQEEEGRKRYEAQKLERMETKWRNGDIVQPVLNPEPNTVSYSQSSLIHLVGPSDCTLHGFVHGGVTMKLMDEVAGIVAARHCKTNIVTASVDAINFHDKIRKGCVITISGRMTFTSNKSMEIEVLVDADPVVDSSQKRYRAASAFFTYVSLSQEGRSLPVPQLVPETEDEKKRFEEGKGRYLQMKAKRQGHAEPQP	8.38
oAβ1-42 binders observed in this work	HSD10: human brain protein, known Aβ interactor (protein, UniProt Q99714 2-261, looked up) 3-hydroxyacyl-CoA …: AAACRSVKGLVAVITGGASGLGLATAERLVGQGASAVLLDLPNSGGEAQAKKLGNNCVFAPADVTSEKDVQTALALAKGKFGRVDVAVNCAGIAVASKTYNLKKGQTHTLEDFQRVLDVNLMGTFNVIRLVAGEMGQNEPDQGGQRGVIINTASVAAFEGQVGQAAYSASKGGIVGMTLPIARDLAPIGIRVMTIAPGLFGTPLLTSLPEKVCNFLASQVPFPSRLGDPAEYAHLVQAIIENPFLNGEVIRLDGAIRMQP	
	Centractin, beta: human brain protein (protein, UniProt P42025 1-376, looked up) Beta-centractin: MESYDIIANQPVVIDNGSGVIKAGFAGDQIPKYCFPNYVGRPKHMRVMAGALEGDLFIGPKAEEHRGLLTIRYPMEHGVVRDWNDMERIWQYVYSKDQLQTFSEEHPVLLTEAPLNPSKNREKAAEVFFETFNVPALFISMQAVLSLYATGRTTGVVLDSGDGVTHAVPIYEGFAMPHSIMRVDIAGRDVSRYLRLLLRKEGVDFHTSAEFEVVRTIKERACYLSINPQKDEALETEKVQYTLPDGSTLDVGPARFRAPELLFQPDLVGDESEGLHEVVAFAIHKSDMDLRRTLFANIVLSGGSTLFKGFGDRLLSEVKKLAPKDIKIKISAPQERLYSTWIGGSILASLDTFKKMWVSKKEYEEDGSRAIHRKTF	7.87
	ATP synthase subunit gamma, mitochondrial: human brain protein (protein, UniProt P36542 26-298, looked up) ATP synthase F(1) complex …: ATLKDITRRLKSIKNIQKITKSMKMVAAAKYARAERELKPARIYGLGSLALYEKADIKGPEDKKKHLLIGVSSDRGLCGAIHSSIAKQMKSEVATLTAAGKEVMLVGIGDKIRGILYRTHSDQFLVAFKEVGRKPPTFGDASVIALELLNSGYEFDEGSIIFNKFRSVISYKTEEKPIFSLNTVASADSMSIYDDIDADVLQNYQEYNLANIIYYSLKESTTSEQSARMTAMDNASKNASEMIDKLTLTFNRTRQAVITKELIEIISGAAALD	8.57
	Mu-crystallin homolog: human brain protein (protein, UniProt Q14894 1-314, looked up) Ketimine reductase …: MSRVPAFLSAAEVEEHLRSSSLLIPPLETALANFSSGPEGGVMQPVRTVVPVTKHRGYLGVMPAYSAAEDALTTKLVTFYEDRGITSVVPSHQATVLLFEPSNGTLLAVMDGNVITAKRTAAVSAIATKFLKPPSSEVLCILGAGVQAYSHYEIFTEQFSFKEVRIWNRTKENAEKFADTVQGEVRVCSSVQEAVAGADVIITVTLATEPILFGEWVKPGAHINAVGASRPDWRELDDELMKEAVLYVDSQEAALKESGDVLLSGAEIFAELGEVIKGVKPAHCEKTTVFKSLGMAVEDTVAAKLIYDSWSSGK	7.65
